The values that follow come from a collection of fitness landscapes (doi:10.1126/science.1257360).

The other results are listed elsewhere or left out. A value given as a limit tells only on which side of the number the result lay.

The chains are these.
B1: PhoQ; a variant is named by its letters at X, in order, P23837 (parent)
chain: MKKLLRLFFPLSLRVRFLLATAAVVLVLSLAYGMVALIGYSVSFDKTTFRLLRGESNLFYTLAKWENNKLHVELPENIDKQSPTMTLIYDENGQLLWAQRDVPWLMKMIQPDWLKSNGFHEIEADVNDTSLLLSGDHSIQQQLQEVREDDDDAEMTHSVAVNVYPATSRMPKLTIVVVDTIPVELKSSYMVWSWFIYVLSANLLLVIPLLWVAAWWSLRPIEALAKEVRELEEHNRELLNPATTRELTSLVRNLNRLLKSERERYDKYRTTLTDLTHSLKTPLXXLQXXLRSLRSEKMSVSDAEPVMLEQISRISQQIGYYLHRASMRGGTLLSRELHPVAPLLDNLTSALNKVYQRKGVNISLDISPEISFVGEQNDFVEVMGNVLDNACKYCLEFVEISARQTDEHLYIVVEDDGPGIPLSKREVIFDRGQRVDTLRPGQGVGLAVAREITEQYEGKIVAGESMLGGARMEVIFGRQHSAPKDE

This assay covers variants of B1. Nature of the assay: enrichment ratio after two sorts for PhoP signalling (ratio (wild type AVST 3.29)); higher = more functional. The following applies: with PhoP (E. coli).
As to NNFK, the enrichment ratio was at most 0.25.

Turning to DPTR, the enrichment ratio is at most 0.25.

For the variant PHHR, the enrichment ratio is at most 0.25.

In the case of VCEF, the enrichment ratio was at most 0.25.

For the variant IMTK, the enrichment ratio was at most 0.25.

On to KAHD, for which the enrichment ratio is at most 0.25.

In the case of RYDC, the enrichment ratio was at most 0.25.

Turning to IYAG, the enrichment ratio was at most 0.25.

Take HNTA: the enrichment ratio was at most 0.25.

As for PPCQ, the enrichment ratio is at most 0.25.

For PNTK, the enrichment ratio is at most 0.25.

Regarding HPMY, the enrichment ratio was at most 0.25.

Regarding RQNR, the enrichment ratio is at most 0.25.

In the case of GARK, the enrichment ratio is at most 0.25.

In the case of KTLT, the enrichment ratio was at most 0.25.

In the case of TDLK, the enrichment ratio came out at 1.35.

For TYRP, the enrichment ratio is at most 0.25.

DDRI: the enrichment ratio was at most 0.25.

Turning to PFHE, the enrichment ratio is at most 0.25.

In the case of YSRK, the enrichment ratio was at most 0.25.

For SETG, the enrichment ratio came to 9.95.

For the variant RFDK, the enrichment ratio is at most 0.25.

As to WDIE, the enrichment ratio is at most 0.25.

Turning to QTWA, the enrichment ratio is at most 0.25.

ATEH: the enrichment ratio is at most 0.25.

Consider YDGM, for which the enrichment ratio was at most 0.25.

Turning to EIMD, the enrichment ratio was at most 0.25.

In the case of YCDL, the enrichment ratio was at most 0.25.

On to IKRG, for which the enrichment ratio is at most 0.25.

With FHNT, the enrichment ratio is at most 0.25.

For the variant IYQM, the enrichment ratio is at most 0.25.

For DTVD, the enrichment ratio was at most 0.25.

Take ECGF: the enrichment ratio was at most 0.25.

With GNVL, the enrichment ratio worked out at 10.9.

In the case of LMYC, the enrichment ratio was at most 0.25.

As for PWLV, the enrichment ratio was at most 0.25.

For YVKK, the enrichment ratio was at most 0.25.

For the variant KPVS, the enrichment ratio was at most 0.25.

As for RCER, the enrichment ratio was at most 0.25.

MAAI: the enrichment ratio was at most 0.25.

Turning to VKGL, the enrichment ratio was at most 0.25.

As for ILNT, the enrichment ratio was at most 0.25.

Turning to WTYL, the enrichment ratio is at most 0.25.

On to LHWP, for which the enrichment ratio is at most 0.25.

For WSEV, the enrichment ratio is at most 0.25.

As for FPVR, the enrichment ratio was at most 0.25.

On to TIAN, for which the enrichment ratio was 19.6.

Regarding TFTE, the enrichment ratio was at most 0.25.

Take VIFF: the enrichment ratio is at most 0.25.

Regarding MHQA, the enrichment ratio was at most 0.25.

Consider NYIG, for which the enrichment ratio is at most 0.25.

On to ADDK, for which the enrichment ratio is at most 0.25.

Take MPSE: the enrichment ratio is at most 0.25.

With EKIT, the enrichment ratio is at most 0.25.

As for KSTA, the enrichment ratio is at most 0.25.

For the variant DMQS, the enrichment ratio is at most 0.25.

In the case of TQCT, the enrichment ratio amounted to 12.5.

Regarding WDMM, the enrichment ratio was at most 0.25.

Take DHKM: the enrichment ratio was at most 0.25.

Turning to LFEA, the enrichment ratio is at most 0.25.

As to ACAA, the enrichment ratio was found to be 6.58.

Take MAIT: the enrichment ratio was at most 0.25.

Consider GQTF, for which the enrichment ratio is at most 0.25.

As for SHSQ, the enrichment ratio is at most 0.25.

As for KCHL, the enrichment ratio was at most 0.25.

For TGLV, the enrichment ratio is 12.3.

In the case of FPKM, the enrichment ratio is at most 0.25.

Turning to NLSQ, the enrichment ratio was at most 0.25.

On to DKTK, for which the enrichment ratio is at most 0.25.

Turning to FACC, the enrichment ratio was at most 0.25.

Turning to PLGD, the enrichment ratio was at most 0.25.

With VKIR, the enrichment ratio was at most 0.25.

For APRI, the enrichment ratio is at most 0.25.

As for MQLC, the enrichment ratio came out at 1.67.

In the case of QSPF, the enrichment ratio is at most 0.25.

Take PCRV: the enrichment ratio is at most 0.25.

With EVQN, the enrichment ratio is at most 0.25.

Consider HDAL, for which the enrichment ratio is at most 0.25.

Turning to EFYQ, the enrichment ratio is at most 0.25.

On to SNFR, for which the enrichment ratio is at most 0.25.

As to VAKI, the enrichment ratio was at most 0.25.

With SYVS, the enrichment ratio was at most 0.25.

With MTGW, the enrichment ratio is at most 0.25.

KAAG: the enrichment ratio was at most 0.25.

As for MDGW, the enrichment ratio is at most 0.25.

For RFHS, the enrichment ratio was at most 0.25.

Regarding FVPK, the enrichment ratio is at most 0.25.

For TGHV, the enrichment ratio is 16.1.

Take VMQT: the enrichment ratio was at most 0.25.

As for RTTT, the enrichment ratio was at most 0.25.

Take TPYM: the enrichment ratio is at most 0.25.

For FIDL, the enrichment ratio was at most 0.25.

Regarding YTCS, the enrichment ratio is at most 0.25.

AILL: the enrichment ratio is 4.86.

For the variant PNTV, the enrichment ratio was at most 0.25.

For EPMY, the enrichment ratio was at most 0.25.

With ALRM, the enrichment ratio is at most 0.25.

On to GMLH, for which the enrichment ratio was at most 0.25.

For LCHR, the enrichment ratio is at most 0.25.

QYCW: the enrichment ratio was at most 0.25.

For WVKW, the enrichment ratio was at most 0.25.

In the case of RLLF, the enrichment ratio was at most 0.25.

For WEAS, the enrichment ratio is at most 0.25.

On to AADR, for which the enrichment ratio was at most 0.25.

Take FCVV: the enrichment ratio is at most 0.25.

Turning to VKKT, the enrichment ratio is at most 0.25.

Consider ISTP, for which the enrichment ratio was at most 0.25.

FTVI: the enrichment ratio was at most 0.25.

As for TSAK, the enrichment ratio is at most 0.25.

For TAVP, the enrichment ratio was at most 0.25.

As to NIAG, the enrichment ratio was at most 0.25.

For the variant QGCQ, the enrichment ratio was at most 0.25.

Take LWFW: the enrichment ratio was at most 0.25.

In the case of PKYF, the enrichment ratio is at most 0.25.

In the case of AQTV, the enrichment ratio was 7.08.

Turning to TAGL, the enrichment ratio was determined as 12.4.

On to YYQP, for which the enrichment ratio is at most 0.25.

Consider PHSN, for which the enrichment ratio was at most 0.25.

For the variant NGYH, the enrichment ratio is at most 0.25.

For the variant RERS, the enrichment ratio was at most 0.25.

For the variant ISYA, the enrichment ratio is at most 0.25.

On to YDWN, for which the enrichment ratio was at most 0.25.

For NYPP, the enrichment ratio is at most 0.25.

With RPLF, the enrichment ratio is at most 0.25.

HFCM: the enrichment ratio is 1.37.

As to EHVT, the enrichment ratio is at most 0.25.

As to SFKT, the enrichment ratio was at most 0.25.

With YGEY, the enrichment ratio is at most 0.25.

In the case of PFNT, the enrichment ratio was at most 0.25.

GFGD: the enrichment ratio is at most 0.25.

Take ESLG: the enrichment ratio is at most 0.25.

On to LQCS, for which the enrichment ratio is at most 0.25.

ILQC: the enrichment ratio is at most 0.25.

DHPH: the enrichment ratio is at most 0.25.

Consider QWCI, for which the enrichment ratio is at most 0.25.

For TWMM, the enrichment ratio was at most 0.25.

On to YFIQ, for which the enrichment ratio was at most 0.25.

For IMAI, the enrichment ratio is at most 0.25.

Take TSND: the enrichment ratio was determined as 2.63.

Take VNKI: the enrichment ratio is at most 0.25.

As for RNPQ, the enrichment ratio was at most 0.25.

As for SMCN, the enrichment ratio is 4.13.

With KFFE, the enrichment ratio is at most 0.25.

SYEM: the enrichment ratio is at most 0.25.

Turning to VEGT, the enrichment ratio was at most 0.25.

Regarding TERM, the enrichment ratio is at most 0.25.

Consider PGPV, for which the enrichment ratio was at most 0.25.

For NWKA, the enrichment ratio is at most 0.25.

As to QCNK, the enrichment ratio is at most 0.25.

GIPI: the enrichment ratio is at most 0.25.

On to THHC, for which the enrichment ratio was at most 0.25.

For MKHI, the enrichment ratio is at most 0.25.

Consider EHSD, for which the enrichment ratio was at most 0.25.
